{"source": "the supplement of paper PMC8728848", "assay_in_all_cases": "glycan array binding signal (z-score within array); higher = stronger binding", "conditions_in_all_cases": "glycan notation: IUPAC condensed, linker removed", "key": {"[1]": {"target": "Gal3S(b1-4)[Fuc(a1-3)]Glc", "outline": "(§1)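 Arrays were curated from the Consortium for Functional Glycomics database, 3228 in total, and kept only where the protein sequence was available. Binding is expressed as a within-array Z-score. This score was averaged across arrays of the same protein sequence at different concentrations or buffers and across linkers, and negative values can be read as non-binding.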"}, "[2]": {"target": "Gal3S(b1-4)[Fuc(a1-3)]Glc6S", "outline": "as §1"}, "[3]": {"target": "Gal3S4S(b1-4)GlcNAc", "outline": "as §1"}, "[4]": {"target": "Gal3S6S(b1-4)GlcNAc", "outline": "as §1"}, "[5]": {"target": "Gal3S6S(b1-4)GlcNAc6S", "outline": "as §1"}, "[6]": {"target": "Gal4S(b1-4)GlcNAc", "outline": "as §1"}, "[7]": {"target": "Gal4S6S(b1-4)GlcNAc", "outline": "as §1"}, "[8]": {"target": "Gal6S(b1-4)Glc", "outline": "as §1"}, "[9]": {"target": "Gal6S(b1-4)Glc6S", "outline": "as §1"}, "[10]": {"target": "Gal6S(b1-4)GlcNAc", "outline": "as §1"}, "[11]": {"target": "Gal6S(b1-4)GlcNAc6S", "outline": "as §1"}, "[12]": {"target": "GalNAc(a1-3)Gal", "outline": "as §1"}, "[13]": {"target": "GalNAc(a1-3)GalNAc", "outline": "as §1"}, "[14]": {"target": "GalNAc(a1-3)GalNAc(a1-3)Gal(a1-4)Gal(b1-4)GlcNAc", "outline": "as §1"}, "[15]": {"target": "GalNAc(b1-3)Gal", "outline": "as §1"}, "[16]": {"target": "GalNAc(b1-3)Gal(a1-4)Gal(b1-4)GlcNAc", "outline": "as §1"}, "[17]": {"target": "GalNAc(b1-3)Gal(a1-4)Gal(b1-4)GlcNAc(b1-3)Gal(b1-4)Glc", "outline": "as §1"}, "[18]": {"target": "GalNAc(b1-3)Gal(a1-6)Gal(b1-4)Glc", "outline": "as §1"}, "[19]": {"target": "GalNAc(b1-3)GalNAc", "outline": "as §1"}, "[20]": {"target": "GalNAc(b1-4)GlcNAc", "outline": "as §1"}, "[21]": {"target": "GalNAc(b1-4)GlcNAc(b1-2)Man(a1-3)[GalNAc(b1-4)GlcNAc(b1-2)Man(a1-6)]Man(b1-4)GlcNAc(b1-4)GlcNAc", "outline": "as §1"}, "[22]": {"target": "Glc(a1-4)Glc", "outline": "as §1"}, "[23]": {"target": "Glc(a1-6)Glc(a1-6)Glc", "outline": "as §1"}, "[24]": {"target": "Glc(b1-4)Glc", "outline": "as §1"}, "[25]": {"target": "Glc(b1-6)Glc", "outline": "as §1"}, "[26]": {"target": "GlcA(b1-3)Gal", "outline": "as §1"}, "[27]": {"target": "GlcA(b1-3)GlcNAc", "outline": "as §1"}, "[28]": {"target": "GlcA(b1-6)Gal", "outline": "as §1"}, "[29]": {"target": "GlcNAc(a1-3)Gal(b1-4)GlcNAc", "outline": "as §1"}, "[30]": {"target": "GlcNAc(a1-4)Gal(b1-3)GlcNAc", "outline": "as §1"}, "[31]": {"target": "GlcNAc(a1-4)Gal(b1-4)GalNAc", "outline": "as §1"}, "[32]": {"target": "GlcNAc(a1-4)Gal(b1-4)GlcNAc", "outline": "as §1"}, "[33]": {"target": "GlcNAc(a1-4)Gal(b1-4)GlcNAc(b1-3)Gal(b1-4)Glc", "outline": "as §1"}, "[34]": {"target": "GlcNAc(a1-4)Gal(b1-4)GlcNAc(b1-3)Gal(b1-4)GlcNAc", "outline": "as §1"}, "[35]": {"target": "GlcNAc(a1-4)Gal(b1-4)GlcNAc(b1-3)Gal(b1-4)GlcNAc(b1-3)Gal(b1-4)GlcNAc", "outline": "as §1"}, "[36]": {"target": "GlcNAc(a1-4)Gal(b1-4)GlcNAc(b1-3)Gal(b1-4)[Fuc(a1-3)]GlcNAc(b1-3)Gal(b1-4)[Fuc(a1-3)]GlcNAc", "outline": "as §1"}, "[37]": {"target": "GlcNAc(a1-6)Gal(b1-4)GlcNAc", "outline": "as §1"}, "[38]": {"target": "GlcNAc(b1-2)Gal(b1-3)GalNAc", "outline": "as §1"}, "[39]": {"target": "GlcNAc(b1-2)Man(a1-3)[GlcNAc(b1-2)Man(a1-6)]Man(b1-4)GlcNAc(b1-4)GlcNAc", "outline": "as §1"}, "[40]": {"target": "GlcNAc(b1-2)Man(a1-3)[GlcNAc(b1-2)Man(a1-6)]Man(b1-4)GlcNAc(b1-4)[Fuc(a1-6)]GlcNAc", "outline": "as §1"}, "[41]": {"target": "GlcNAc(b1-2)[GlcNAc(b1-4)]Man(a1-3)[GlcNAc(b1-2)Man(a1-6)]Man(b1-4)GlcNAc(b1-4)GlcNAc", "outline": "as §1"}, "[42]": {"target": "GlcNAc(b1-3)Gal", "outline": "as §1"}, "[43]": {"target": "GlcNAc(b1-3)Gal(b1-3)GalNAc", "outline": "as §1"}, "[44]": {"target": "GlcNAc(b1-3)Gal(b1-4)Glc", "outline": "as §1"}, "[45]": {"target": "GlcNAc(b1-3)Gal(b1-4)GlcNAc", "outline": "as §1"}}, "note": "Some of the results follow.", "data": [{"binder": "Galatrox (Botrops atrox), P0DM53 (protein) NNCPQDWLPMNGLCYKIFDELKAWKDAEMFCRKYKPGCHLASIILYGESPEWAEGHSEVWLGLWDKKKDFSWEWTDR", "values": [{"measurement": "glycan array binding signal (z-score)", "setting": "[1]", "value": -0.346}, {"measurement": "glycan array binding signal (z-score)", "setting": "[2]", "value": 0.481}, {"measurement": "glycan array binding signal (z-score)", "setting": "[3]", "value": -0.367}, {"measurement": "glycan array binding signal (z-score)", "setting": "[4]", "value": -0.367}, {"measurement": "glycan array binding signal (z-score)", "setting": "[5]", "value": -0.357}, {"measurement": "glycan array binding signal (z-score)", "setting": "[6]", "value": -0.365}, {"measurement": "glycan array binding signal (z-score)", "setting": "[7]", "value": -0.348}, {"measurement": "glycan array binding signal (z-score)", "setting": "[8]", "value": -0.147}, {"measurement": "glycan array binding signal (z-score)", "setting": "[9]", "value": -0.355}, {"measurement": "glycan array binding signal (z-score)", "setting": "[10]", "value": -0.33}, {"measurement": "glycan array binding signal (z-score)", "setting": "[11]", "value": -0.32}, {"measurement": "glycan array binding signal (z-score)", "setting": "[12]", "value": -0.358}, {"measurement": "glycan array binding signal (z-score)", "setting": "[13]", "value": -0.356}, {"measurement": "glycan array binding signal (z-score)", "setting": "[14]", "value": -0.374}, {"measurement": "glycan array binding signal (z-score)", "setting": "[15]", "value": -0.378}, {"measurement": "glycan array binding signal (z-score)", "setting": "[16]", "value": -0.368}, {"measurement": "glycan array binding signal (z-score)", "setting": "[17]", "value": 0.613}, {"measurement": "glycan array binding signal (z-score)", "setting": "[18]", "value": -0.32}, {"measurement": "glycan array binding signal (z-score)", "setting": "[19]", "value": -0.358}, {"measurement": "glycan array binding signal (z-score)", "setting": "[20]", "value": -0.266}, {"measurement": "glycan array binding signal (z-score)", "setting": "[21]", "value": -0.343}, {"measurement": "glycan array binding signal (z-score)", "setting": "[22]", "value": -0.372}, {"measurement": "glycan array binding signal (z-score)", "setting": "[23]", "value": -0.362}, {"measurement": "glycan array binding signal (z-score)", "setting": "[24]", "value": -0.365}, {"measurement": "glycan array binding signal (z-score)", "setting": "[25]", "value": -0.364}, {"measurement": "glycan array binding signal (z-score)", "setting": "[26]", "value": -0.363}, {"measurement": "glycan array binding signal (z-score)", "setting": "[27]", "value": -0.37}, {"measurement": "glycan array binding signal (z-score)", "setting": "[28]", "value": -0.355}, {"measurement": "glycan array binding signal (z-score)", "setting": "[29]", "value": -0.376}, {"measurement": "glycan array binding signal (z-score)", "setting": "[30]", "value": -0.374}, {"measurement": "glycan array binding signal (z-score)", "setting": "[31]", "value": -0.367}, {"measurement": "glycan array binding signal (z-score)", "setting": "[32]", "value": -0.359}, {"measurement": "glycan array binding signal (z-score)", "setting": "[33]", "value": -0.37}, {"measurement": "glycan array binding signal (z-score)", "setting": "[34]", "value": -0.357}, {"measurement": "glycan array binding signal (z-score)", "setting": "[35]", "value": -0.355}, {"measurement": "glycan array binding signal (z-score)", "setting": "[36]", "value": 1.41}, {"measurement": "glycan array binding signal (z-score)", "setting": "[37]", "value": 2.43}, {"measurement": "glycan array binding signal (z-score)", "setting": "[38]", "value": -0.358}, {"measurement": "glycan array binding signal (z-score)", "setting": "[39]", "value": -0.365}, {"measurement": "glycan array binding signal (z-score)", "setting": "[40]", "value": -0.302}, {"measurement": "glycan array binding signal (z-score)", "setting": "[41]", "value": -0.367}, {"measurement": "glycan array binding signal (z-score)", "setting": "[42]", "value": -0.369}, {"measurement": "glycan array binding signal (z-score)", "setting": "[43]", "value": -0.347}, {"measurement": "glycan array binding signal (z-score)", "setting": "[44]", "value": -0.357}, {"measurement": "glycan array binding signal (z-score)", "setting": "[45]", "value": -0.372}]}]}
